The results in this text go back to paper PMC10668032.

The other results are listed elsewhere or left out. At the low end of the ranking the order means little.

This assay concerns the target SIX1 homeodomain (reference allele) (UniProt Q15475). The assay can be described thus: universal protein binding microarray. Particulars: Universal all-10-mer PBM (8x60K, AMADID 030236), 300 nM GST-tagged protein, Alexa Fluor 488 anti-GST; buffer, salt, pH and temperature not stated; high values mean tight binding; most listed sequences are background and not binding sites; double strand, one strand shown.
Regarding TAGCAGGA, the binding signal is -0.043 E-score.
As for GACGTTAA, the binding signal was -0.141 E-score.
In the case of CAGTGTCA it was 0.249 E-score; in that of CGGAGATC, 0.322 E-score; in that of GGAGCGTA, 0.0084 E-score.
For the sequence GGGTTCTA, the binding signal was 0.000965 E-score.
Turning to CGACTTGC, the binding signal was -0.165 E-score.
For the sequence CCCGTTCG, the binding signal was -0.0656 E-score.
Consider AACTAGGG, for which the binding signal is -0.237 E-score.
Then GATGACCC, with 0.269 E-score; and CTTTTTGA, with 0.0152 E-score; and GTTTGTTA, with -0.259 E-score.
Then CTGGTAAA, with -0.152 E-score; and CGCGACAG, with -0.069 E-score.
In the case of ATAAGACG it was 0.149 E-score; in that of ACACTCGG, 0.0181 E-score.
Consider AGTTGTCG, for which the binding signal was -0.207 E-score.
Then CAGATTTA, with -0.0391 E-score.
With CAACGTCG, the binding signal is -0.139 E-score.
In the case of CCAGATTC it was -0.0421 E-score; in that of CGACTGTA, -0.18 E-score; in that of AAAGAGCG, -0.244 E-score.
With ACAACCTG, the binding signal is -0.147 E-score.
Consider GCTTTCAC, for which the binding signal was -0.0876 E-score.
In the case of CATTTGGA it was 0.0558 E-score; in that of AGTGTTCC, -0.176 E-score.
As to TTACAAAA, the binding signal was -0.337 E-score.
Then TAGCTTCA, with -0.0619 E-score; and ACTTCGTG, with -0.204 E-score.
In the case of CGCGTGAG it was -0.117 E-score; in that of GACCGTGA, -0.202 E-score; in that of ACCTGATG, -0.0924 E-score.
On to GCTGTGTA, for which the binding signal stood at 0.0891 E-score.
For the sequence AAAATCGT, the binding signal was -0.0968 E-score.
In the case of CATACTAA it was -0.119 E-score; in that of CAACAGCG, -0.0299 E-score; in that of CGTTGATC, 0.152 E-score.
With ACCACGTA, the binding signal is 0.0322 E-score.
Then AAGCACCG, with -0.228 E-score.
In the case of ACACTCGA it was -0.00214 E-score; in that of ACGGCCAC, -0.23 E-score; in that of GGCCGGAC, -0.193 E-score.
Then CAGGCTGA, with 0.0399 E-score.
As to AATGCACG, the binding signal is -0.168 E-score.
Take ATTCAACA: the binding signal was determined as 0.0665 E-score.
With GCCATGTA, the binding signal turned out to be 0.183 E-score.
As for CTGCAGTA, the binding signal is -0.193 E-score.
Then GTATTAAA, with 0.246 E-score.
With CCAGTGCC, the binding signal is -0.0955 E-score.
Consider AGTTCGCC, for which the binding signal is -0.245 E-score.
Then AGTAACAG, with -0.126 E-score; and CGAAGTTC, with -0.259 E-score; and AGACTTGA, with -0.126 E-score.
Consider CCGTGTAA, for which the binding signal worked out at 0.071 E-score.
In the case of GGAGAGGA it was 0.0657 E-score.
In the case of CGTGAAAC, the binding signal is -0.191 E-score.
Take AAAACGTA: the binding signal is -0.121 E-score.
Then ACGCCCGG, with 0.00351 E-score.
As for CAAGCCGG, the binding signal is -0.0764 E-score.
Then ACCGACGT, with -0.0828 E-score; and CAAAGACG, with -0.26 E-score.
In the case of CGGCGCCG, the binding signal was -0.0602 E-score.
Consider GACATTAA, for which the binding signal is -0.121 E-score.
Then AGAACGTA, with -0.106 E-score.
In the case of AACCCCCG it was 0.049 E-score.
Consider ATCTTGAC, for which the binding signal came to 0.129 E-score.
In the case of ATAGCCGC it was 0.0754 E-score; in that of ACTCCGGA, 0.16 E-score; in that of ACGGACGT, -0.112 E-score.
In the case of AACAATGA it was -0.0339 E-score; in that of AGGTTATA, 0.12 E-score.
Then GAGGGAGC, with -0.178 E-score; and ATCACAAA, with 0.193 E-score; and AGGTCGGC, with -0.111 E-score.
In the case of CGGTGACG, the binding signal is -0.171 E-score.
In the case of AGACTGTA it was -0.157 E-score; in that of GAGGGAAC, -0.364 E-score.
Consider AGTCGAAC, for which the binding signal was -0.0996 E-score.
Take ATGGGAGA: the binding signal was -0.0506 E-score.
Regarding CTGTAGGC, the binding signal is -0.21 E-score.
For ATGCCCCA, the binding signal turned out to be 0.114 E-score.
In the case of AGCGTCTG, the binding signal came out at 0.0452 E-score.
In the case of ATGGCCCG it was -0.123 E-score; in that of CCCTTGAA, 0.0113 E-score.
Take ATTGATGA: the binding signal is -0.0497 E-score.
Then AAGAACTT, with -0.26 E-score.
On to CTGGCGGC, for which the binding signal was -0.218 E-score.
In the case of CTGATGGC it was -0.185 E-score; in that of CTTAAGTC, -0.228 E-score; in that of GAGCAGCA, -0.3 E-score.
For CGTTCACA, the binding signal is -0.224 E-score.
With GGGAACAA, the binding signal was -0.137 E-score.
As for CGATCTGA, the binding signal worked out at 0.302 E-score.
In the case of ACAAAAGA it was -0.0402 E-score.
With AATTGGGA, the binding signal is -0.0847 E-score.
Then ATCGGCCG, with 0.128 E-score; and GTCACAGA, with -0.00367 E-score.
With AGTTTTAT, the binding signal was -0.142 E-score.
Take TAAGTCGA: the binding signal is 0.106 E-score.
In the case of CCTCGACC, the binding signal was -0.03 E-score.
Then CTACACAC, with -0.0921 E-score; and GCTTTACC, with -0.148 E-score.
Turning to AGCCATGC, the binding signal turned out to be 0.0186 E-score.
Regarding TGCCAGCA, the binding signal is -0.273 E-score.
As for AGCAGAAG, the binding signal is -0.195 E-score.
In the case of GACACACC, the binding signal came to 0.165 E-score.
For ACAGAGTG, the binding signal is -0.119 E-score.
For the sequence CGGCCGTA, the binding signal is -0.0155 E-score.
Consider CGGGGAAC, for which the binding signal is 0.0229 E-score.
